Experimental data as given in PubChem BioAssay AID1347165 (National Center for Advancing Translational Sciences (NCATS), 2019).
The whole screen tested about 220,000 compounds, of which about 5,700 (2.6%) were called active. The shares of active, inactive and inconclusive entries below differ from those in the screen. Calls come from the whole dose curve; as a rule, active = well fitted inhibition curve with a large enough effect; inconclusive = small, poorly fitted or top-dose-only effect; inactive = no such curve, though single readings can be large or run the other way. Where the call is inconclusive, the potency comes from a doubtful curve fit.

Target: Lysine-specific demethylase 5B (Homo sapiens) (UniProt Q9UGL1)
Sequence of UniProt Q9UGL1 (Q9UGL1 whole entry, looked up): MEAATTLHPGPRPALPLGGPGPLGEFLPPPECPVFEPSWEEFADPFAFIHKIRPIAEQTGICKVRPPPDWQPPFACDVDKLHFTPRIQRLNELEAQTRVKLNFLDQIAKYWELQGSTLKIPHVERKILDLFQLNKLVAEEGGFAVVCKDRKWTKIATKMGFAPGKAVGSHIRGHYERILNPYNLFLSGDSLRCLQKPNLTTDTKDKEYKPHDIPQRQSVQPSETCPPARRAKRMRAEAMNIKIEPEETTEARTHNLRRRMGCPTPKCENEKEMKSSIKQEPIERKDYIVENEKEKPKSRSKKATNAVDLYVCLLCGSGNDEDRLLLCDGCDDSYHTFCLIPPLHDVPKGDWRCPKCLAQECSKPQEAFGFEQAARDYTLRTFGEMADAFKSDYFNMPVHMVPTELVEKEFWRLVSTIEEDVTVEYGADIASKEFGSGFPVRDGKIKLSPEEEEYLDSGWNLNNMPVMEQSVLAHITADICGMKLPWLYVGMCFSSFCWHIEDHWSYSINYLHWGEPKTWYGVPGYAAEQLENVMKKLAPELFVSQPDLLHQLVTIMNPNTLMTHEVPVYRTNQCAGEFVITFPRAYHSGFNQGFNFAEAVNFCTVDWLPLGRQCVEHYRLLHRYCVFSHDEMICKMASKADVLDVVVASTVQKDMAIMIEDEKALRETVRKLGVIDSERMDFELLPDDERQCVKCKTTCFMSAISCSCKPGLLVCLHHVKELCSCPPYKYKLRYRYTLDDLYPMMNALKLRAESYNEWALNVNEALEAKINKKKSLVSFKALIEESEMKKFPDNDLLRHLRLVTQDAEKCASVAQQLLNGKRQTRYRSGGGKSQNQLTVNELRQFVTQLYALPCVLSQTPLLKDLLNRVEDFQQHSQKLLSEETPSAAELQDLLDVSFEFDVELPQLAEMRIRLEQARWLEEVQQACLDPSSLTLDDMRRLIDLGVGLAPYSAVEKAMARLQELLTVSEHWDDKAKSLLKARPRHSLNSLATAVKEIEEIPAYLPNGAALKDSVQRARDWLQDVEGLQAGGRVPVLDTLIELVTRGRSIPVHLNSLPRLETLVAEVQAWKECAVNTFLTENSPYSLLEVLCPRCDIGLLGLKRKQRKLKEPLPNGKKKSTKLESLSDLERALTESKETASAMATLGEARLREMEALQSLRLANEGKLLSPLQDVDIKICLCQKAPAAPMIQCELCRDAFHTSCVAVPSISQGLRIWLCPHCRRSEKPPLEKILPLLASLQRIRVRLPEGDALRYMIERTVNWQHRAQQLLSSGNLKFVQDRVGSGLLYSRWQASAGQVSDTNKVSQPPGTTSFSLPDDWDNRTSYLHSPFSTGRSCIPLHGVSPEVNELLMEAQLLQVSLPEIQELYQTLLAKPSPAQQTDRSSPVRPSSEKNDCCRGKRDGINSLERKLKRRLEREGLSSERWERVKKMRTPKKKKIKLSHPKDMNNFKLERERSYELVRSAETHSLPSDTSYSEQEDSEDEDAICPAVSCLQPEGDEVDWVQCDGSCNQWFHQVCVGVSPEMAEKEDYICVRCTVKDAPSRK
Assay: Primary screen for KDM5B Histone Demethylases FDH-coupled qHTS; note: nearly all actives have a fitted effect of over 70% in size; for activity change, negative = inhibition: 0% is about no effect
Conditions: FDH-coupled NADH fluorescence (FDH is formaldehyde dehydrogenase); activity change, negative = inhibition: at 57.7 µM (top of the series) unless noted
Method in brief: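 Measured: NADH fluorescence change, 30 min, RT. System: KDM5BΔAP 200 nM final, H3K4me3 peptide, α-KG, Fe(II), ascorbate, NAD⁺ plus FDH, pH 7.5 HEPES. Compounds: titrated, 10 min pre-incubation with enzyme.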
Potency is the fitted concentration of half-maximal effect; tags give direction and shape of the fitted curve.

| SMILES | Potency | activity change, negative = inhibition |
| --- | --- | --- |
| COc1cc(OC)c(NC(=O)c2cnn(-c3ccccc3)c2-n2cccc2)cc1Cl | inconclusive: 25.1 µM [inhibitor, partial curve, poor fit] |  |
| COCCCNC(=O)c1cc2c(-c3cccc(OC)c3)nn(C)c2s1 | inconclusive: 31.6 µM [inhibitor, partial curve, poor fit] |  |
| COCCCNc1ncc(C(=O)O)c(-c2ccccc2)n1 | inconclusive: 28.2 µM [inhibitor, partial curve, poor fit] |  |
| O=C(c1noc(-c2ccc(F)cc2)n1)N1CCN(c2ccccc2)CC1 | inconclusive: 17.8 µM [inhibitor, partial curve, poor fit] |  |
| COc1ccccc1-c1ncc(CN2CCCC3(CCNCC3)CC2)cn1 | inconclusive: 28.2 µM [inhibitor, partial curve, poor fit] |  |
| CCCc1c(C)nc2ccc(Cl)cc2c1-c1ccccc1 | inactive |  |
| COc1ccc(-c2[nH]nc3ncc(C(=O)Nc4ccn(C)n4)nc23)c(C)c1 | inactive |  |
| CCOC(=O)c1cc2c(=O)n3ccccc3nc2n(C)c1=NC(=O)c1c(-c2c(F)cccc2Cl)noc1C | inconclusive: 31.6 µM [inhibitor, partial curve, poor fit] |  |
| COc1cc(-c2c(NC(=O)c3ccc(F)cc3)oc3ccccc3c2=O)cc(OC)c1OC | inactive |  |
| CC(NC(=O)c1ccc(F)cc1Br)c1ccc(F)cc1 (centres undefined) | inactive |  |
| CCn1cc(C(=O)NCc2ccncc2)c(=O)c2cc(F)c(N3CCN(C(=O)c4ccco4)CC3)cc21 | inconclusive: 28.2 µM [inhibitor, partial curve, poor fit] |  |
| CCc1ccc(NC(=O)CSc2nc3c(c(=O)[nH]2)CN(Cc2ccc4c(c2)OCO4)CC3)cc1 | inconclusive: 5.62 µM [inhibitor, partial curve, poor fit] |  |
| CC(C)(C)c1cc(N)c(O)c(Br)c1 | inconclusive: 22.4 µM [inhibitor, single point] |  |
| COCCNC(=O)C(C)[C@@H]1CC[C@@]2(C)CC[C@H](NC(=O)c3cccc(F)c3)[C@@H](C)[C@@H]2[C@H]1O (some centres undefined) | inconclusive: 39.8 µM [inhibitor, partial curve, poor fit] |  |
| CN(C)C(=O)c1cc(-c2cccc(C(F)(F)F)c2)c2nncn2n1 | active: 100 µM |  |
| COc1ccc(C2CCCN2CC(=O)N2CCN(c3cccc(C(F)(F)F)c3)CC2)c(OC)c1 (centres undefined) | inactive |  |
| COC(=O)C[C@@H]1CCN(C(=O)COc2ccccc2)C[C@@H]1CC1=NCCc2cc(OC)c(OC)cc21 | active: 25.1 µM |  |
| Clc1ccc(-c2cnc(CSc3n[nH]c(-c4ccccc4)n3)o2)cc1 | inactive |  |
| Oc1ccc(-c2nc(C3CC3)nc3c2CN(Cc2ccc(F)cc2)CC3)cc1 | inconclusive: 39.8 µM [inhibitor, partial curve, poor fit] |  |
| COc1ccc(CNCC(=O)Nc2cc(OC)cc(OC)c2)cc1 | inconclusive: 14.1 µM [inhibitor, partial curve, poor fit] |  |
| O=C(COC(=O)COc1ccccc1F)Nc1ccc(Cl)cn1 | inactive |  |
| Cc1nc2ncccn2c1C(=O)N1CCC(=O)N(CC2CC2)C(C(C)C)C1 (centres undefined) | active: 28.2 µM |  |
| COCCOC(=O)/C(C#N)=C\c1cc(Cl)c(O)c(OC)c1 | inconclusive: 28.2 µM [inhibitor, partial curve, poor fit] |  |

| SMILES | Potency | activity change, negative = inhibition |
| --- | --- | --- |
| CCOc1ccc(Nc2cc(C(=O)NCc3ccccc3Cl)c3ccccc3n2)cc1 | inconclusive: 39.8 µM [inhibitor, single point] |  |
| COc1ccc(CN2CCN(C/C=C/c3ccccc3)CC2)cc1OC | inconclusive: 31.6 µM [inhibitor, partial curve, poor fit] |  |
| NC(=O)N/N=C/c1ccc2cccc(OCc3ccccc3)c2n1 | inconclusive: 14.1 µM [inhibitor, partial curve, poor fit] |  |
| O=c1c2c3c(nn2ccn1Cc1cc(F)ccc1F)CCCC3 | inactive |  |
| CC(=O)NCC(=O)N1Cc2ccccc2CC2(CCCN(CC3CCNC3)C2)C1 (centres undefined) | inconclusive: 79.4 µM [inhibitor, partial curve] |  |
| O=C(O)CC1(CNS(=O)(=O)c2ccc(Cl)cc2)CCCCC1 | inactive |  |
| CCn1nc(C)c(CN2CCC(C3CCNC3)CC2)c1C (centres undefined) | inconclusive: 28.2 µM [inhibitor, partial curve, poor fit] |  |
| CCN(Cc1ccccc1)c1ncnc2c1cnn2-c1ccc(F)cc1 | inconclusive: 39.8 µM [inhibitor, single point] |  |
| COc1cccc(S(=O)(=O)N2CCC(n3cnnc3-c3ccccc3)CC2)c1 | inactive |  |
| Cc1cnc2c(S(=O)(=O)N(C)CC(=O)Nc3cccc(C)c3C)cccc2c1 | inactive |  |
| COc1ccc(-c2nccn3cc(C(=O)NCCc4cccnc4)nc23)cc1 | active: 28.2 µM |  |
| CCOc1ccc(C(C)(C)C)cc1S(=O)(=O)NCc1ccco1 | inactive |  |
| Nc1nccnc1C(=O)NCC1CC2c3ccccc3C1c1ccccc12 (centres undefined) | inconclusive: 10 µM [inhibitor, partial curve, poor fit] |  |
| O=C1c2ccccc2NC(c2ccccc2O)N1O (centres undefined) | inconclusive: 28.2 µM [inhibitor, single point] |  |
| Cc1ccc(C)c(NC(=O)C2CCCN(S(=O)(=O)Cc3ccccc3Cl)C2)c1 (centres undefined) | inactive |  |
| COc1ccc(-c2nc(C(C)C)nc3c2CCN([S+](=O)([O-])c2ccc(C)cc2)CC3)cc1 | inactive |  |
| COCCn1c(C)nnc1-c1cc(-c2cccc(OC)c2)ccn1 | active: 35.5 µM |  |
| COCCN1Cc2ccc(NCC(C)C)nc2C(C)(C(=O)NCc2cccnc2)C1 (centres undefined) | active: 31.6 µM |  |
| Cc1ccc(Cl)cc1N1CCN(S(=O)(=O)c2cn(C)c(C)n2)CC1 |  | inconclusive: -33.6% [inhibitor] |
| Cc1ccc2c(CN(C)CCOc3ccccc3Cl)cc(=O)oc2c1 | inconclusive: 15.8 µM [inhibitor, partial curve, poor fit] |  |
| COc1ccc2cc1Nc1ccc(cc1)C[C@H](NCc1ccc3c(c1)CCO3)C(=O)N(C)[C@H](C(=O)NCCC(C)C)C2 | inactive |  |
| Cc1[nH]c2ccc(C(=O)NCCN3CCN(C)CC3)cc2c1C | inactive |  |
| CC1(C)N=C(SCC(=O)Nc2ccc(Br)cc2)C(c2ccc(Br)cc2)=N1 | inconclusive: 39.8 µM [inhibitor, single point] |  |

| SMILES | Potency | activity change, negative = inhibition |
| --- | --- | --- |
| Cc1[nH]c2ccccc2c1SCCNC(=O)c1ccc2ccccc2c1 | inactive |  |
| O=C(CCn1ccc2cc(S(=O)(=O)N3CCCCC3)ccc21)NCC1CCCO1 (centres undefined) | inactive |  |
| c1cc(N2CCOCC2)ccc1-c1cc(-c2cn[nH]c2)c2cncn2c1 | active: 28.2 µM |  |
| CCc1ccc(CNC(C)(C)CO)cc1 | inactive |  |
| COc1ccc(C(=O)NCc2ccc3c(c2)CCN3C(C)=O)c(OC)c1 |  | inconclusive: -43% [inhibitor] |
| CCOc1ccc(-c2cc(=O)c3ccc(NC(=O)c4ccccc4C)cc3o2)cc1 | inconclusive: 28.2 µM [inhibitor, partial curve, poor fit] |  |
| CCCCc1c(C)c2ccc(OC)c(/C(C)=N/O)c2oc1=O | inconclusive: 39.8 µM [inhibitor, single point] |  |
| Cc1ccccc1-c1cc2nc(C)c(Cl)c(=O)n2[nH]1 | inconclusive: 22.4 µM [inhibitor, partial curve, poor fit] |  |
| CCC(=O)N1CCc2cc(CNC(=O)c3cccc(N(C)C)c3)ccc21 | inconclusive: 15.8 µM [inhibitor, partial curve, poor fit] |  |
| CCOc1ccc(-c2nnc(SCC(=O)Nc3cc(C)ccc3OC)o2)cc1 | inconclusive: 31.6 µM [inhibitor, partial curve, poor fit] |  |
| CCN(CC)CCN1C(=O)C(=O)/C(=C(/O)c2ccc(OCc3cccc(C)c3)cc2)C1c1ccco1 (centres undefined) | inconclusive: 12.6 µM [inhibitor, partial curve, poor fit] |  |
| CCn1cc(C(=O)N[C@@H]2CN(c3ncccn3)C[C@H]2CO)cn1 | inconclusive: 14.1 µM [inhibitor, single point] |  |
| Cc1c(C(=O)Nc2cccc(-c3nc4ccccc4s3)c2)oc2ccc(F)cc12 | inconclusive: 15.8 µM [inhibitor, partial curve, poor fit] |  |
| CCOC(=O)N1CCN(C(=O)CN(c2ccccc2OCC)S(=O)(=O)c2ccc(C)cc2)CC1 | inactive |  |
| Cc1ccccc1C(=O)N1CCC2(CC1)CCN(CCc1ccccc1)c1ccccc1O2 | inconclusive: 7.94 µM [inhibitor, partial curve] |  |
| CC(C)CNC(=O)CCNC(=O)c1ccc(C(C)(C)C)cc1 | inactive |  |
| Cc1ccc(CNC(=O)c2nn(C)c3c2CSc2ccc(C)cc2-3)cc1 | inconclusive: 14.1 µM [inhibitor, partial curve, poor fit] |  |
| CN1C(=O)[C@@H]2C[C@@H](CN2C(=O)CCC(=O)O)Oc2ccccc21 | inconclusive: 28.2 µM [inhibitor, single point] |  |
| COC(=O)c1ccccc1NC(=O)c1ccc(=O)n(Cc2cccc(C)c2)c1 | inconclusive: 35.5 µM [inhibitor, partial curve, poor fit] |  |
| Cc1ccccc1Cn1cc(-c2ccncc2)cc1C(=O)Nc1ccc2c(c1)OCO2 | inactive |  |
| COc1ccc(S(=O)(=O)c2c(O)c(C)cc(NC(=O)c3ccccc3)c2C(C)C)cc1 | inconclusive: 39.8 µM [inhibitor, single point] |  |
| CCOC(=O)c1ccc(NC(=O)Cn2c(=O)n(CC)c(=O)c3c2cc(C)n3C)cc1 | inactive |  |
| COc1ccccc1N1CCN(C(=O)c2ccc(Nc3nc4ccccc4n4nnnc34)cc2)CC1 | inconclusive: 6.31 µM [inhibitor, partial curve, poor fit] |  |
